From publication PMC12595022 come the findings set out here.

By UniProt entry, the sequences of proteins in these tests, tags left out. Where a name states a change or a piece, a line headed by the entry shows the natural chain unless it says otherwise.
UniProt Q12778: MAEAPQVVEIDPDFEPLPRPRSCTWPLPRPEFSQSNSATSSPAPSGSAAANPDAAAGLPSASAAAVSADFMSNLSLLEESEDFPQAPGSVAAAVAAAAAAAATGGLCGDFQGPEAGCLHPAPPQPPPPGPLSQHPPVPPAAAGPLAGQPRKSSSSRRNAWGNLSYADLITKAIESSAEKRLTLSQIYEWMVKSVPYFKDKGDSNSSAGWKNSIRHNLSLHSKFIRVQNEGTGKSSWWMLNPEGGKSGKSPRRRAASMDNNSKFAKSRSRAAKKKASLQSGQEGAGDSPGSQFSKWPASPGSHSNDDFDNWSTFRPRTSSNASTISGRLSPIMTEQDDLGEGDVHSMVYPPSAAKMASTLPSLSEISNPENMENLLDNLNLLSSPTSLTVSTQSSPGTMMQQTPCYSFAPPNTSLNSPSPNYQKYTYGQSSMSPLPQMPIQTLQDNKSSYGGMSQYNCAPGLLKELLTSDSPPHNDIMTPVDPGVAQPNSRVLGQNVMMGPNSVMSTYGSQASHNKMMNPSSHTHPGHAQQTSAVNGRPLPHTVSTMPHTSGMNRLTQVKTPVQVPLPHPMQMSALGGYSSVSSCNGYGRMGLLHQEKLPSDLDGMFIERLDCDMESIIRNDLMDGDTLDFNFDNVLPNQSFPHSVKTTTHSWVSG

The target in experiment [1] is T1, MDMX (co-immunoprecipitation with FOXO1, Fig. S3D) (UniProt O15151).
T1 sequence: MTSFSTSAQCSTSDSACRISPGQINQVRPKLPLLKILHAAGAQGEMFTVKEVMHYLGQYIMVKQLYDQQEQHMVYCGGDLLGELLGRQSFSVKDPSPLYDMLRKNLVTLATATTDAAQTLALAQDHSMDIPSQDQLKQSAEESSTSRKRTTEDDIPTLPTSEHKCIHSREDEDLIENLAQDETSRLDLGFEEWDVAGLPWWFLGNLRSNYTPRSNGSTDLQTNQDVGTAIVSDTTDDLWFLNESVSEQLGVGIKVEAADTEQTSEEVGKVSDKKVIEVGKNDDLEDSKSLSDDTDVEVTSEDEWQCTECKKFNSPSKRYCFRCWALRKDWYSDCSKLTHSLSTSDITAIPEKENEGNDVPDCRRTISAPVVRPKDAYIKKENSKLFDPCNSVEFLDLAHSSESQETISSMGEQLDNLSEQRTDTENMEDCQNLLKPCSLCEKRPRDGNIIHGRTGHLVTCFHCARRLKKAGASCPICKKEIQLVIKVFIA
Nature of the experiment: co-IP; co-immunoprecipitation of MDMX and FOXO1 (Fig. S3D); cells not given; lysate with specific antibody and protein A/G beads at 4 °C overnight, Western blot. Background: In western blotting, separated proteins are transferred to a membrane and probed.

Experiment [2] deals with T2, MDMX (endogenous, 293T) (human (endogenous in 293T)) (UniProt O15151).
T2 sequence: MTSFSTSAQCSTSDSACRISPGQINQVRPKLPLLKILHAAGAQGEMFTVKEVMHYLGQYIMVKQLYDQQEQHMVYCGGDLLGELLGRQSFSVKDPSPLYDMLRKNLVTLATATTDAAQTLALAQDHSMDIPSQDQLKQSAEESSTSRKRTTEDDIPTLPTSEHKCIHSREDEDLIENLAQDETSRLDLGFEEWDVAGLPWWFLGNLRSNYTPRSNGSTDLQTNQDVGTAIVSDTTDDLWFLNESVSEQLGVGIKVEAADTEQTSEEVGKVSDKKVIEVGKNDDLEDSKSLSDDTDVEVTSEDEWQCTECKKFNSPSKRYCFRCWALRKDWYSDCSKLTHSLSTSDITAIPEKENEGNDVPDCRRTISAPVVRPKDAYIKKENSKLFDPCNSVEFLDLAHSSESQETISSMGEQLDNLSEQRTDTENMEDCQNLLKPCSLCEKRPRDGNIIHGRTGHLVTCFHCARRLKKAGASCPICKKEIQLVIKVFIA
Nature of the experiment: co-IP; 293T cells, endogenous or transfected proteins (Fig. 5D, S4B, 5F, 6C); specific antibody and protein A/G beads at 4 °C overnight, Western blot.

For experiment [3], the target named is T3, full-length MDMX (UniProt O15151).
T3 sequence: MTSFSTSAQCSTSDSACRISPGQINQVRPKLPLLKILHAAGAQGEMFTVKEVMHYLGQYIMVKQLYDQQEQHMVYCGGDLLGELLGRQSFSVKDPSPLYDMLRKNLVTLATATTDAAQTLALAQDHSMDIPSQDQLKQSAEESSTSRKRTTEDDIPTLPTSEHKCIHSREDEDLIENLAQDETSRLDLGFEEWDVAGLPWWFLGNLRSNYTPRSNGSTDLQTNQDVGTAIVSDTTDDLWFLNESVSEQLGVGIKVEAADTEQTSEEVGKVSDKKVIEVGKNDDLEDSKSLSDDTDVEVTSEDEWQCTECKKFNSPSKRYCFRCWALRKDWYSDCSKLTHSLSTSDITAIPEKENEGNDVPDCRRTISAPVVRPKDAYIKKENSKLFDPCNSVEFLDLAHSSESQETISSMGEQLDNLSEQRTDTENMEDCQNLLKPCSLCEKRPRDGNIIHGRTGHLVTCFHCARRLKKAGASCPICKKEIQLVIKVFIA
Described as above.

Experiment [4] concerns the target FOXO1 (transfected, Huh7) (UniProt Q12778). Nature of the experiment: co-IP; Huh7 cells co-transfected with MDMX and FOXO1 (Fig. 5C); specific antibody and protein A/G beads at 4 °C overnight, Western blot.
Experiment [5] addresses T4, MDMX-101–490 (UniProt O15151).
T4 sequence: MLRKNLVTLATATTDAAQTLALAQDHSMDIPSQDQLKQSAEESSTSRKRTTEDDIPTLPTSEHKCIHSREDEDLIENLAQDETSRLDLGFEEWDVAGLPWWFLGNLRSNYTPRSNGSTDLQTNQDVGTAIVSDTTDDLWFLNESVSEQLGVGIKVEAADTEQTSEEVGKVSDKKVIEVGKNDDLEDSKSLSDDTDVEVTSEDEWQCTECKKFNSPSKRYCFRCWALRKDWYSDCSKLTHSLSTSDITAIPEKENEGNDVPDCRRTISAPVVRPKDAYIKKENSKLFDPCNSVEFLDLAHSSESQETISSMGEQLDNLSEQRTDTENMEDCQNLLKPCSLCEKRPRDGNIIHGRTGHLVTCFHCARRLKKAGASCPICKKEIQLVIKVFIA
Nature of the experiment: co-IP; 293T cells, endogenous or transfected proteins (Fig. 5D, S4B, 5F, 6C); specific antibody and protein A/G beads at 4 °C overnight, Western blot.

For experiment [6], the target named is T5, MDMX-101-361 (UniProt O15151).
T5 sequence: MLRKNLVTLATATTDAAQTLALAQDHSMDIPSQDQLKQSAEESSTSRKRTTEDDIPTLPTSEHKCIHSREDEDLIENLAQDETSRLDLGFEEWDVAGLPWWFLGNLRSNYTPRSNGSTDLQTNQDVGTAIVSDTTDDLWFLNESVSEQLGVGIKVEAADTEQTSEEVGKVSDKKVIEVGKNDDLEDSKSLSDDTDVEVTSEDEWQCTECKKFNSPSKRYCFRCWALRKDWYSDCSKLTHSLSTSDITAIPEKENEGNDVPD
Described as above.

Experiment [7] addresses FOXO1 (ectopic expression, 293T) (UniProt Q12778). The description is as above.
Experiment [8] concerns the target T6, MDMX-1-361 (UniProt O15151).
T6 sequence: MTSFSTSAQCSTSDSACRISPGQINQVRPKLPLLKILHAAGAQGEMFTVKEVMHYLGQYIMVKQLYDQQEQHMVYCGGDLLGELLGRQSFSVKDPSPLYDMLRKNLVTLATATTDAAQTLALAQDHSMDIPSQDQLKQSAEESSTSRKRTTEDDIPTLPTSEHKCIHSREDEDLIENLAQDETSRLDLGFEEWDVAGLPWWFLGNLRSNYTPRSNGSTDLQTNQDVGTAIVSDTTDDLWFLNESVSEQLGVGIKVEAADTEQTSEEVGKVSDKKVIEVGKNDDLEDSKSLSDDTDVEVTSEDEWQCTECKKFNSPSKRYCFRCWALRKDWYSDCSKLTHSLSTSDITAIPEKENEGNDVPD
Described as above.

The target in experiment [9] is T7, MDMX-S367A (UniProt O15151).
T7 sequence: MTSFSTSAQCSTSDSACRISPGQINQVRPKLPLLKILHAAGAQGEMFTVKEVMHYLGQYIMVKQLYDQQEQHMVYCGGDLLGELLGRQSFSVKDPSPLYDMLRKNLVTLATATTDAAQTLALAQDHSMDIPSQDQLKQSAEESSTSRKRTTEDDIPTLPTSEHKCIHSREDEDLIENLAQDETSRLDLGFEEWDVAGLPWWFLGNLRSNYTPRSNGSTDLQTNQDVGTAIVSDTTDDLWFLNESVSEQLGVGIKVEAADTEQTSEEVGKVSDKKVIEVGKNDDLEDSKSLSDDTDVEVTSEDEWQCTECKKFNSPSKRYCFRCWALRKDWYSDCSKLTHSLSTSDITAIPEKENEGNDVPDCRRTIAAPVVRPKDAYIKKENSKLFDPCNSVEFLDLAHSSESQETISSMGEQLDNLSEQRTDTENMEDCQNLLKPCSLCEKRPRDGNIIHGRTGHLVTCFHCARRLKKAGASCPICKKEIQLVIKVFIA
The experiment is described as above.

Experiment [10] addresses T8, MDMX-SG (UniProt O15151).
T8 sequence: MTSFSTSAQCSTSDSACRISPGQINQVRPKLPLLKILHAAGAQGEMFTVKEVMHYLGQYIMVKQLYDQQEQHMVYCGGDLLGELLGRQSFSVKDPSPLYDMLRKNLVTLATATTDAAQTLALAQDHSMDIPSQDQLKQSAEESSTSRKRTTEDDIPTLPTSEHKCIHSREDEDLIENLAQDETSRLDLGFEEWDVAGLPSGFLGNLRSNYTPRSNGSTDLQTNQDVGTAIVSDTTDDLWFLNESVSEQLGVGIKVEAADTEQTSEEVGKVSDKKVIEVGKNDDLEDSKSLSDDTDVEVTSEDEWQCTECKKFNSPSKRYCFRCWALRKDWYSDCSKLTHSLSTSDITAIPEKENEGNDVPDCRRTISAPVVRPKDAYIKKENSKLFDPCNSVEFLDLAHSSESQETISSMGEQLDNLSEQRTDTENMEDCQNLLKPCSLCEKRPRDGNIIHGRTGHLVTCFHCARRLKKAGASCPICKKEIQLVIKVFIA
The description is as above.

Results are given in words; binding and its absence hold for the method and conditions named. Binding seen in cells or lysates may run through a third protein. Some results given as binding are weak or reduced against the parent protein; the word gives no strength.

For “FOXO1 (co-immunoprecipitation with MDMX, Fig. S3D) (from UniProt Q12778 1-655)”, the binding entry in experiment [1] is “no binding”.

B1: 14-3-3γ (endogenous, 293T) (protein, UniProt P61981 1-247)
chain: MVDREQLVQKARLAEQAERYDDMAAAMKNVTELNEPLSNEERNLLSVAYKNVVGARRSSWRVISSIEQKTSADGNEKKIEMVRAYREKIEKELEAVCQDVLSLLDNYLIKNCSETQYESKVFYLKMKGDYYRYLAEVATGEKRATVVESSEKAYSEAHEISKEHMQPTHPIRLGLALNYSVFYYEIQNAPEQACHLAKTAFDDAIAELDTLNEDSYKDSTLIMQLLRDNLTLWTSDQQDDDGGEGNN
On to B1, for which the binding entry in experiment [2] is recorded as “binds”.

B2: 14-3-3γ (exogenous, 293T) (protein, UniProt P61981 1-247)
chain: MVDREQLVQKARLAEQAERYDDMAAAMKNVTELNEPLSNEERNLLSVAYKNVVGARRSSWRVISSIEQKTSADGNEKKIEMVRAYREKIEKELEAVCQDVLSLLDNYLIKNCSETQYESKVFYLKMKGDYYRYLAEVATGEKRATVVESSEKAYSEAHEISKEHMQPTHPIRLGLALNYSVFYYEIQNAPEQACHLAKTAFDDAIAELDTLNEDSYKDSTLIMQLLRDNLTLWTSDQQDDDGGEGNN
As to B2, the binding result in experiment [3] is reported as “binds”.

B3: 14-3-3γ (Huh7) (protein, UniProt P61981 1-247)
chain: MVDREQLVQKARLAEQAERYDDMAAAMKNVTELNEPLSNEERNLLSVAYKNVVGARRSSWRVISSIEQKTSADGNEKKIEMVRAYREKIEKELEAVCQDVLSLLDNYLIKNCSETQYESKVFYLKMKGDYYRYLAEVATGEKRATVVESSEKAYSEAHEISKEHMQPTHPIRLGLALNYSVFYYEIQNAPEQACHLAKTAFDDAIAELDTLNEDSYKDSTLIMQLLRDNLTLWTSDQQDDDGGEGNN
B3: the binding entry in experiment [4] is given as “binds”.

B4: 14-3-3γ (293T, Fig. 5F and 6C) (protein, UniProt P61981 1-247)
chain: MVDREQLVQKARLAEQAERYDDMAAAMKNVTELNEPLSNEERNLLSVAYKNVVGARRSSWRVISSIEQKTSADGNEKKIEMVRAYREKIEKELEAVCQDVLSLLDNYLIKNCSETQYESKVFYLKMKGDYYRYLAEVATGEKRATVVESSEKAYSEAHEISKEHMQPTHPIRLGLALNYSVFYYEIQNAPEQACHLAKTAFDDAIAELDTLNEDSYKDSTLIMQLLRDNLTLWTSDQQDDDGGEGNN
Take B4: the binding entry is “binds” in experiment [5]; “binds” in experiment [3]; “no binding” in experiment [6]; “binds” in experiment [7]; “no binding” in experiment [8]; “no binding” in experiment [9]. The binding result in [10] is given as “binds”.
